The list shows a part of the results. Viral Rep nickase domains cut single-stranded DNA in vitro at 3 µM enzyme and 37 °C for 1 h; the strands have 90 letters, of which the middle is given. Values are log2 of uncut reads against the no-enzyme pool; uncut sequences lie near 0, cut ones below; no hit call is given. Shares of all reads are compared; values above 0 arise when much of the pool is cut.
Tests used:
Test in all cases: uncleaved DNA left, log2 of reads against the no-enzyme library (log2 ratio); higher = less cleavage (more negative = more Rep cleavage of the k-mer); sequences stand for … in CTCGTCCG…ACCGGAGA
[1] = test system: T1, Rep nickase domain of Muscovy duck circovirus
T1 sequence (Rep 1-111, printed without the tag): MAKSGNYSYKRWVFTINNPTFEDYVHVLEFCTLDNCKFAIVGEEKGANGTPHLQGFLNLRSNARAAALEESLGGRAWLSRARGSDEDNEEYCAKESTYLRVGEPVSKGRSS
Procedure: (§1)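 A pool of 90-nt single-stranded DNAs with seven random bases just before the constant AC of the nick site (name = the seven bases) was cut by 3 µM recombinant His6-SUMO-tagged Rep nickase domain (300 nM DNA, 50 mM HEPES pH 8.0, 50 mM NaCl, 1 mM MnCl2, 1 h, 37 °C, three replicates). Uncut DNA was amplified and sequenced.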

[2] = test system: T2, Rep nickase domain of banana bunchy top virus
T2 sequence (Rep 1-94, printed without the tag): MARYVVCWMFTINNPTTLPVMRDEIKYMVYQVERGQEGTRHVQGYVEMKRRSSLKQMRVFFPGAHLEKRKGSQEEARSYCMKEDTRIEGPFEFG
Procedure: as §1

[3] = test system: T3, Rep nickase domain of cabbage leaf curl virus
T3 sequence (Rep 1-116, printed without the tag): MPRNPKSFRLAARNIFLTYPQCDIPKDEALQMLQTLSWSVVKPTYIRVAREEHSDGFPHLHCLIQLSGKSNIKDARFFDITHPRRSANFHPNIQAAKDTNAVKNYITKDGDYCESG
Procedure: as §1

[4] = test system: T4, Rep nickase domain of chickpea chlorotic dwarf virus
T4 sequence (Rep 1-124, printed without the tag): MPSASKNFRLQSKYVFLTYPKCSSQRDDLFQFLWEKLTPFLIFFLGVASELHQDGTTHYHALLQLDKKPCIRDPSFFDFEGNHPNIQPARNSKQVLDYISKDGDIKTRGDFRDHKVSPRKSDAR
Procedure: as §1

[5] = test system: T5, Rep nickase domain of faba bean necrotic yellows virus
T5 sequence (Rep 1-98, printed without the tag): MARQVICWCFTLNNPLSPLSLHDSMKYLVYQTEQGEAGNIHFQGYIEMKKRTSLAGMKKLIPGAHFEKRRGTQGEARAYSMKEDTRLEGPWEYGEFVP
Procedure: as §1

[6] = test system: T6, Rep nickase domain of maize striate mosaic virus
T6 sequence (Rep 1-117, printed without the tag): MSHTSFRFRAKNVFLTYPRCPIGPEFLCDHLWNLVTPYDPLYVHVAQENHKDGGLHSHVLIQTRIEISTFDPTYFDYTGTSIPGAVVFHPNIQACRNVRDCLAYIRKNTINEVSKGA
Procedure: as §1

[7] = test system: T7, Rep nickase domain of porcine circovirus 2
T7 sequence (Rep 2-116, printed without the tag): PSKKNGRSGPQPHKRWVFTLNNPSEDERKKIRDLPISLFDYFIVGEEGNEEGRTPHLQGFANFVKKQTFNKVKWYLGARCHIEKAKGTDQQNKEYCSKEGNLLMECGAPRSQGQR
Procedure: as §1

[8] = test system: T8, Rep nickase domain of tomato golden mosaic virus
T8 sequence (Rep 1-124, printed without the tag): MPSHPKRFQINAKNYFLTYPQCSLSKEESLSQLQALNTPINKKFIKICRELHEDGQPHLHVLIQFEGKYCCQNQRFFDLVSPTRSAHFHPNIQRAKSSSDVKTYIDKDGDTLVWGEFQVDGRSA
Procedure: as §1

[9] = test system: T9, Rep nickase domain of tomato yellow leaf curl virus
T9 sequence (Rep 1-136, printed without the tag): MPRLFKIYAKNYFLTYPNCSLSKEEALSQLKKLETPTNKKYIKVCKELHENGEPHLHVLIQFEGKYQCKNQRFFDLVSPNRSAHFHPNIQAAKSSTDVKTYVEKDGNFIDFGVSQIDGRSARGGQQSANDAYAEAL
Procedure: as §1

[10] = test system: T10, Rep nickase domain of wheat dwarf virus
T10 sequence (Rep 1-137, printed without the tag): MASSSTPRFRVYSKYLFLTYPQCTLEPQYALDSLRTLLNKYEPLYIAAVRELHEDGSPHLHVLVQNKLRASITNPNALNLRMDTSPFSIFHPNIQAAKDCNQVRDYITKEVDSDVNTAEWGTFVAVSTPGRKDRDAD
Procedure: as §1

GAGTTTC
uncleaved DNA left (log2) [1]: -0.246 | uncleaved DNA left (log2) [2]: -0.109 | uncleaved DNA left (log2) [3]: 0.0935 | uncleaved DNA left (log2) [4]: 0.364 | uncleaved DNA left (log2) [5]: -0.223 | uncleaved DNA left (log2) [6]: 0.948 | uncleaved DNA left (log2) [7]: -2.82 | uncleaved DNA left (log2) [8]: -0.147 | uncleaved DNA left (log2) [9]: 0.00512 | uncleaved DNA left (log2) [10]: -0.0586

CACTTGG
uncleaved DNA left (log2) [1]: 0.0375 | uncleaved DNA left (log2) [2]: -0.0733 | uncleaved DNA left (log2) [3]: -0.679 | uncleaved DNA left (log2) [4]: -0.579 | uncleaved DNA left (log2) [5]: -0.0424 | uncleaved DNA left (log2) [6]: -1.13 | uncleaved DNA left (log2) [7]: -0.0593 | uncleaved DNA left (log2) [8]: -0.143 | uncleaved DNA left (log2) [9]: 0.0192 | uncleaved DNA left (log2) [10]: -0.151

GACATGT
uncleaved DNA left (log2) [1]: 0.00106 | uncleaved DNA left (log2) [2]: -0.0455 | uncleaved DNA left (log2) [3]: 0.483 | uncleaved DNA left (log2) [4]: 1.19 | uncleaved DNA left (log2) [5]: -0.0908 | uncleaved DNA left (log2) [6]: 1.48 | uncleaved DNA left (log2) [7]: 0.042 | uncleaved DNA left (log2) [8]: -0.0552 | uncleaved DNA left (log2) [9]: -0.126 | uncleaved DNA left (log2) [10]: -0.00928

GCATCCT
uncleaved DNA left (log2) [1]: -0.42 | uncleaved DNA left (log2) [2]: -0.00787 | uncleaved DNA left (log2) [3]: -0.0207 | uncleaved DNA left (log2) [4]: -1.27 | uncleaved DNA left (log2) [5]: -0.157 | uncleaved DNA left (log2) [6]: -0.00252 | uncleaved DNA left (log2) [7]: -0.452 | uncleaved DNA left (log2) [8]: -0.132 | uncleaved DNA left (log2) [9]: -0.0282 | uncleaved DNA left (log2) [10]: -0.126

TGCTAAT
uncleaved DNA left (log2) [1]: -2.03 | uncleaved DNA left (log2) [2]: -0.0553 | uncleaved DNA left (log2) [3]: -0.0602 | uncleaved DNA left (log2) [4]: -0.674 | uncleaved DNA left (log2) [5]: -0.0333 | uncleaved DNA left (log2) [6]: -0.187 | uncleaved DNA left (log2) [7]: -3.4 | uncleaved DNA left (log2) [8]: -0.00369 | uncleaved DNA left (log2) [9]: 0.117 | uncleaved DNA left (log2) [10]: -0.029

GCGACCC
uncleaved DNA left (log2) [1]: 0.0353 | uncleaved DNA left (log2) [2]: 0.0417 | uncleaved DNA left (log2) [3]: 0.111 | uncleaved DNA left (log2) [4]: 0.614 | uncleaved DNA left (log2) [5]: 0.0453 | uncleaved DNA left (log2) [6]: 0.591 | uncleaved DNA left (log2) [7]: -0.00674 | uncleaved DNA left (log2) [8]: -0.0746 | uncleaved DNA left (log2) [9]: -0.0379 | uncleaved DNA left (log2) [10]: 0.063

CCAGATG
uncleaved DNA left (log2) [1]: 0.0744 | uncleaved DNA left (log2) [2]: 0.00913 | uncleaved DNA left (log2) [3]: 0.258 | uncleaved DNA left (log2) [4]: 1 | uncleaved DNA left (log2) [5]: 0.0188 | uncleaved DNA left (log2) [6]: 0.897 | uncleaved DNA left (log2) [7]: 0.22 | uncleaved DNA left (log2) [8]: -0.107 | uncleaved DNA left (log2) [9]: -0.0922 | uncleaved DNA left (log2) [10]: -0.0425

AGATCAG
uncleaved DNA left (log2) [1]: -0.0579 | uncleaved DNA left (log2) [2]: -0.0554 | uncleaved DNA left (log2) [3]: -0.583 | uncleaved DNA left (log2) [4]: -0.491 | uncleaved DNA left (log2) [5]: -0.0316 | uncleaved DNA left (log2) [6]: -1.01 | uncleaved DNA left (log2) [7]: 0.131 | uncleaved DNA left (log2) [8]: -0.00404 | uncleaved DNA left (log2) [9]: 0.0325 | uncleaved DNA left (log2) [10]: 0.0254

TATTTAC
uncleaved DNA left (log2) [1]: -0.402 | uncleaved DNA left (log2) [2]: 0.059 | uncleaved DNA left (log2) [3]: 0.0321 | uncleaved DNA left (log2) [4]: -1.81 | uncleaved DNA left (log2) [5]: -0.00782 | uncleaved DNA left (log2) [6]: -0.197 | uncleaved DNA left (log2) [7]: -0.296 | uncleaved DNA left (log2) [8]: 0.0599 | uncleaved DNA left (log2) [9]: 0.037 | uncleaved DNA left (log2) [10]: 0.0534

GTCCACT
uncleaved DNA left (log2) [1]: 0.032 | uncleaved DNA left (log2) [2]: 0.0847 | uncleaved DNA left (log2) [3]: 0.288 | uncleaved DNA left (log2) [4]: 0.647 | uncleaved DNA left (log2) [5]: -0.0347 | uncleaved DNA left (log2) [6]: 1.55 | uncleaved DNA left (log2) [7]: 0.108 | uncleaved DNA left (log2) [8]: 0.146 | uncleaved DNA left (log2) [9]: 0.0945 | uncleaved DNA left (log2) [10]: 0.194

TGACCAG
uncleaved DNA left (log2) [1]: -0.0208 | uncleaved DNA left (log2) [2]: 0.111 | uncleaved DNA left (log2) [3]: -0.476 | uncleaved DNA left (log2) [4]: -0.44 | uncleaved DNA left (log2) [5]: -0.000982 | uncleaved DNA left (log2) [6]: -0.859 | uncleaved DNA left (log2) [7]: -0.0503 | uncleaved DNA left (log2) [8]: 0.00156 | uncleaved DNA left (log2) [9]: 0.135 | uncleaved DNA left (log2) [10]: 0.074

TGCTGGA
uncleaved DNA left (log2) [1]: 0.0555 | uncleaved DNA left (log2) [2]: -0.0501 | uncleaved DNA left (log2) [3]: 0.0203 | uncleaved DNA left (log2) [4]: 0.126 | uncleaved DNA left (log2) [5]: -0.0675 | uncleaved DNA left (log2) [6]: 0.0701 | uncleaved DNA left (log2) [7]: -0.0951 | uncleaved DNA left (log2) [8]: -0.101 | uncleaved DNA left (log2) [9]: -0.102 | uncleaved DNA left (log2) [10]: 0.00854

GCCTATC
uncleaved DNA left (log2) [1]: -0.243 | uncleaved DNA left (log2) [2]: -0.0802 | uncleaved DNA left (log2) [3]: -0.00206 | uncleaved DNA left (log2) [4]: 0.379 | uncleaved DNA left (log2) [5]: -0.0385 | uncleaved DNA left (log2) [6]: -0.0519 | uncleaved DNA left (log2) [7]: -0.0032 | uncleaved DNA left (log2) [9]: -0.00785 | uncleaved DNA left (log2) [10]: -0.0757

TTAGACT
uncleaved DNA left (log2) [1]: 0.0291 | uncleaved DNA left (log2) [2]: -0.0808 | uncleaved DNA left (log2) [3]: 0.0975 | uncleaved DNA left (log2) [4]: -0.597 | uncleaved DNA left (log2) [5]: -0.0132 | uncleaved DNA left (log2) [6]: 1.13 | uncleaved DNA left (log2) [7]: 0.0573 | uncleaved DNA left (log2) [9]: -0.0236 | uncleaved DNA left (log2) [10]: -0.0359
